# In all, about 110,000 compounds were measured (“z-score”: median about -0.1, highest 2% from about 2 on). The list shows a part of the results. Active and inactive are the calls of the source.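 The calls were made as follows: active = z-score in the third read window above 3 or below -3; inactive = the rest.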
# Target: Metabotropic glutamate receptor 8 (Rattus norvegicus) (UniProt P70579)
# Test: rat mGluR8 modulators via GIRK flux, primary screen, cell-based, thallium flux, HTS (AID 488969)
# Settings: HEK293 rat mGluR8, GIRK (G protein-gated inwardly rectifying potassium channel) thallium flux, FluoZin2; at 10 µM; stronger effect = higher value; submaximal glutamate (EC20) added with thallium
# Chain of UniProt P70579 (P70579 whole entry, looked up): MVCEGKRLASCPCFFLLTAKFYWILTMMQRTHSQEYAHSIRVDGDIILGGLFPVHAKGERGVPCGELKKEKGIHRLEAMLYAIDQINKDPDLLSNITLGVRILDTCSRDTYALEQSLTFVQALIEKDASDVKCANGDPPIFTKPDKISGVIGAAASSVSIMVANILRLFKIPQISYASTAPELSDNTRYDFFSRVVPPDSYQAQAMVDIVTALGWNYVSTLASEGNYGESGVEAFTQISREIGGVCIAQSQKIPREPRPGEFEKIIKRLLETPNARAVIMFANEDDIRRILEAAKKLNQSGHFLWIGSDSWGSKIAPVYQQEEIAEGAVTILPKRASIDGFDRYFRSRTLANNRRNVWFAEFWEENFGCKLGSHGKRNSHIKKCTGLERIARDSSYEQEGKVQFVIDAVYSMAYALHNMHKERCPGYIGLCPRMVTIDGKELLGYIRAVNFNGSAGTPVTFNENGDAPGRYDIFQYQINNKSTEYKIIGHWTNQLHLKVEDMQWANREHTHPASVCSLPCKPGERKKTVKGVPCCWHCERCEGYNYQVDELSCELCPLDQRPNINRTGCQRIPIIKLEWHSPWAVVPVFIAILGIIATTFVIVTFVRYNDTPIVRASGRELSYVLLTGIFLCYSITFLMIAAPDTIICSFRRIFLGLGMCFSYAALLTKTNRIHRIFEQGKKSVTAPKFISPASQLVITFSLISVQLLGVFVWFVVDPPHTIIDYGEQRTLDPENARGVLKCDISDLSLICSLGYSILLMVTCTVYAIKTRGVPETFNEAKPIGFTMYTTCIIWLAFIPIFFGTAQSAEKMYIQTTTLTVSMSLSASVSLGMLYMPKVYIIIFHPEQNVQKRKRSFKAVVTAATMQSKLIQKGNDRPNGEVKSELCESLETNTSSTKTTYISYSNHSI
row,Compound,z-score
1,O=C(CCn1c(=O)oc2ccccc21)NCc1cccs1,0.479
2,Cc1ccccc1S(=O)(=O)Cc1ccc(C(=O)O)o1,0.122
3,Cc1ccc(CNC(=O)C(Cc2ccccc2)NS(=O)(=O)c2ccc3c(c2)CCC(=O)N3)cc1 (configuration not stated),0.0976
4,CCc1nc2ccccc2c(C(=O)OCC(=O)NCc2ccc3c(c2)OCO3)c1C,-1.06
5,Cc1ccc(-n2nnnc2SCC(=O)Nc2ccc3c(c2)OCCO3)cc1C,-0.189
6,O=C(c1ccco1)N1CCN(S(=O)(=O)N2CCOCC2)CC1,0.61
7,Cc1ccc(OCc2nnc(SCC(=O)C(C)(C)C)n2Cc2ccco2)cc1,-0.302
8,CCN1C(=O)/C(=C/c2cccs2)N(C)C1=S,0.114
9,CC1C(=O)NN=C1C(=O)N/N=C\c1ccc(O)cc1O (configuration not stated),0.0728
10,O=C1C(=Cc2ccc(Br)o2)C(=O)c2ccccc21,-0.617
11,O=C(CSc1nnnn1C1CCCC1)Nc1cccc(NC(=O)c2ccco2)c1,-0.447
12,COc1cc(NC(=O)c2ccc3c(c2)OCO3)c2ncccc2c1,-0.168
13,CSCCC(NC(=O)c1ccccc1Br)C(=O)Nc1ccc(C)cc1 (configuration not stated),0.239
14,Cc1oc(C2CC2)cc1C(=O)O,0.166
15,CCC(C)N(CCNC(=O)CC1Oc2ccc(C)cc2NC1=O)C1CCCCC1 (configuration not stated),-0.668
16,CCOc1ccc(-n2c(C)nc3cc(C(=O)NCCCN4CCOCC4)ccc32)cc1,0.443
17,Cc1ccc(OCC(=O)NNC(=O)CSc2ncc(C#N)c(N)n2)cc1,0.231
18,O=C(CCN1C(=O)COc2ccccc21)NCCN1CCN(c2cccc(Cl)c2)CC1,-0.0789
19,O=C(CCNC(=O)c1ccccc1Cl)NCC12CC3CC(CC(C3)C1)C2,-0.16

row,Compound,z-score
1,O=C(NCc1cccnc1)c1cc(-c2cccs2)on1,-0.198
2,CCCCn1c(/C=C/c2ccco2)nc2ccccc21,0.0625
3,Nn1c(SCC(=O)NCCC2=CCCCC2)nnc1C(F)(F)F,-0.303
4,COc1cc(OC)c(-c2c3cc(O)c(=O)cc-3oc3cc(O)c(O)cc23)cc1OC,-2.48
5,O=C(NC1CCCCC1)N(C1=NCCCCC1)c1ccc(Br)cc1,-0.204
6,CCCc1[nH]nc2c1C(C1CCCCC1)C(C#N)=C(N)O2 (configuration not stated),-0.14
7,COc1ccc(OC)c(CCNC(=O)CC2Oc3ccc(C)cc3NC2=O)c1 (configuration not stated),-0.53
8,CC(C)CCNC(=O)CCNS(=O)(=O)c1ccc(Cl)cc1,-0.225
9,Cc1cc(Cn2ccnc2)c(C)cc1Cn1ccnc1,0.233
10,CCOC(=O)c1cnn(-c2ccccc2)c1NC(=O)c1ccc(C)cc1,-0.297
11,CCc1sc(C(=O)Nc2ccc(NC(C)=O)cc2)cc1C,-0.655
12,CC(C)N(Cc1nc(-c2ccc(Cl)cc2)no1)C(=O)C12CC3CC(CC(C3)C1)C2,0.312
13,Cc1ccnc(NS(=O)(=O)c2ccc(N)cc2)n1,-0.063
14,COC(=O)c1ccc(OCCOc2ccccc2)cc1,0.0331
15,Cn1c(N/N=C/c2c[nH]c3ccccc23)nc2ccccc21,-0.161
16,O=C(O)CCn1c(=O)[nH]c2ccccc2c1=O,0.0893
17,Cn1c(C(=O)O)c(CC(=O)Nc2ccc(F)cc2F)c2ccccc21,-0.847
18,COC(=O)NNC(=O)COc1ccccc1C,-0.341
19,CCCCn1nc(NC(=O)c2cccs2)c2cc3ccccc3nc21,-0.605

row,Compound,z-score
1,COc1ccc([C@@H]2[C@@H](C(=O)C(C)(C)C)N3N=Cc4ccccc4[C@@H]3C23C(=O)OC(C)(C)OC3=O)cc1OC,-0.146
2,COc1ccc(NC(=O)N2CCc3ccccc32)cc1,0.323
3,Cc1cccn2c(=O)c(/C=C(\C#N)S(=O)(=O)c3ccccc3)c(Oc3ccc(Cl)cc3)nc12,-0.262
4,CC(=O)C1C(c2cn(-c3ccccc3)nc2-c2cccs2)NC(=O)NC1(O)C(F)(F)F (configuration not stated),-0.165
5,O=C1/C(=C/c2ccccc2)CSc2sccc21,-0.212
6,O=C(CSc1nnc(CNc2cccc(Cl)c2)o1)OC1CCCCC1,-0.452
7,CC1CCCC(NC(=O)COC(=O)/C=C/c2ccc3c(c2)OCO3)C1C (configuration not stated),-0.0178
8,CC(=O)Nc1c(C(=O)NCc2ccccc2)nnn1Cc1ccccc1,0.153
9,O=C(NNC(=O)C1CCCO1)c1ccccc1Cl (configuration not stated),0.018
10,CSc1nc2nccc(-c3ccc(Cl)cc3)n2n1,-1.46
11,CCC1c2ccc(C)n2CCN1C(=O)Nc1cc(Cl)ccc1OC (configuration not stated),-2.44
12,COc1cccc2sc(Nc3nnc(-c4cccs4)o3)nc12,active: 17.4
13,Cc1onc(-c2ccccc2)c1C(=O)Oc1cccnc1,-0.687
14,COCc1cc(Sc2ccc(Cl)cc2)nc(-c2ccccc2)n1,0.0284
15,N#Cc1c(NC(=O)CSc2ncn(-c3ccccc3)n2)sc2c1CCCC2,-0.866
16,Cc1ccccc1OCCNc1cc(N2CCCCC2)ccc1[N+](=O)[O-],-0.204
17,Cc1cc(/C=N/n2cnnc2)c(C)n1-c1ccc(OCc2ccc(Cl)cc2Cl)cc1,0.772
18,Cc1ccc(C(=O)N/C(=C\c2sccc2C)C(=O)NCc2ccco2)cc1,-0.235
19,CCOCCSC1=C(C#N)C(c2cccs2)C(C(C)=O)=C(C)N1 (configuration not stated),-1.52
